Measured values as given in PubChem BioAssay (NCI).
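Five concentrations, 48 hours, 96-well plates. GI50: concentration for 50% inhibition of growth. TGI denotes the concentration required for complete inhibition of growth.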

Each compound was assayed on NCI-H322M lung (assay: growth of human tumour cells (NCI), 48 h).

**Q.** What does the source list for CCCCCCNC(=O)Oc1ccc(/C(=C(/C)c2ccc(OC)cc2)c2ccc(OCCN3CCCCCC3)cc2)cc1?
**A.** GI50: 9.73 µM; TGI: 27.5 µM

**Q.** For O=C(CCCCCCNC(=O)C(O)(O)C(F)(F)F)Nc1ccc(Cl)cc1, which GI50 is on record?
**A.** The GI50 was 8.06 µM.

**Q.** And the TGI?
**A.** The TGI was > 36.8 µM.

**Q.** What does the source list for C#Cc1nc(/C=C/C(=O)c2nccn2C)cs1?
**A.** GI50: 1.95 µM; TGI: 7.71 µM

**Q.** Which GI50 does the source give for COc1cc(OC)c(S(N)(=O)=O)cc1C(=O)/C=C/c1ccccc1 here?
**A.** Its GI50 is 10.7 µM.

**Q.** And the TGI?
**A.** The TGI was 22.6 µM.

**Q.** What does the source list for N#Cc1c(-n2c(Br)c(Br)c3cc(Br)ccc32)[nH]c2c(Br)cc(Br)cc12?
**A.** GI50: 1.42 µM; TGI: > 15 µM

**Q.** How did the GI50 turn out when Cc1cc(O)c(=O)cc2c1C[C@H]1CC(C)(C)/C=C/C[C@]3(C)Oc4cc(=O)c(O)cc(C)c4C[C@H]3C[C@H](O)[C@@]1(C)O2 was run?
**A.** The GI50 was 0.0301 µM.

**Q.** What about the TGI of the same compound?
**A.** Its TGI is > 16.7 µM.
